# From the supplement of paper PMC8728848
# The list shows a part of the results.
# B1: Gal 3C (Homo sapiens), P17931 (protein)
# chain: YGAPAGPLIVPYNLPLPGGVVPRMLITILGTVKPNANRIALDFQRGNDVAFHFNPRFNENNRRVIVCNTKLDNNWGREERQSVFPFESGKPFKIQVLVEPDHFKVAVNDAHLLQYNHRVKKLNEISKLGISGDIDLTSASYTMI
# Tests used:
# Assay in all cases: glycan array binding signal (z-score within array); higher = stronger binding
# Conditions in all cases: glycan notation: IUPAC condensed, linker removed
# [1] = molecular target: Neu5Ac(a2-3)Gal(b1-4)GlcNAc(b1-3)[Neu5Ac(a2-3)Gal(b1-4)GlcNAc(b1-6)]GalNAc
# How it was run: (§1)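 The binding signal is a Z-score computed within each array and averaged over linkers. Arrays of the same protein sequence at different concentrations or buffers were also averaged together. Data originate from 3228 arrays in the Consortium for Functional Glycomics database, kept only where the protein sequence was available.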
# [2] = molecular target: Neu5Ac(a2-3)Gal(b1-4)GlcNAc(b1-6)GalNAc
# How it was run: as §1
# [3] = molecular target: Neu5Ac(a2-3)Gal(b1-4)GlcNAc(b1-6)[Gal(b1-3)]GalNAc
# How it was run: as §1
# [4] = molecular target: Neu5Ac(a2-3)Gal(b1-4)GlcNAc(b1-6)[Neu5Ac(a2-3)Gal(b1-3)]GalNAc
# How it was run: as §1
# [5] = molecular target: Neu5Ac(a2-3)Gal(b1-4)GlcNAc6S
# How it was run: as §1
# [6] = molecular target: Neu5Ac(a2-3)Gal(b1-4)[Fuc(a1-3)]GlcNAc
# How it was run: as §1
# [7] = molecular target: Neu5Ac(a2-3)Gal(b1-4)[Fuc(a1-3)]GlcNAc(b1-2)Man
# How it was run: as §1
# [8] = molecular target: Neu5Ac(a2-3)Gal(b1-4)[Fuc(a1-3)]GlcNAc(b1-3)Gal
# How it was run: as §1
# [9] = molecular target: Neu5Ac(a2-3)Gal(b1-4)[Fuc(a1-3)]GlcNAc(b1-3)Gal(b1-4)GlcNAc
# How it was run: as §1
# [10] = molecular target: Neu5Ac(a2-3)Gal(b1-4)[Fuc(a1-3)]GlcNAc(b1-3)Gal(b1-4)[Fuc(a1-3)]GlcNAc(b1-3)Gal(b1-4)[Fuc(a1-3)]GlcNAc
# How it was run: as §1
# [11] = molecular target: Neu5Ac(a2-3)Gal(b1-4)[Fuc(a1-3)]GlcNAc(b1-3)GalNAc
# How it was run: as §1
# [12] = molecular target: Neu5Ac(a2-3)Gal(b1-4)[Fuc(a1-3)]GlcNAc(b1-6)[Gal(b1-3)]GalNAc
# How it was run: as §1
# [13] = molecular target: Neu5Ac(a2-3)Gal(b1-4)[Fuc(a1-3)]GlcNAc(b1-6)[Neu5Ac(a2-3)Gal(b1-3)]GalNAc
# How it was run: as §1
# [14] = molecular target: Neu5Ac(a2-3)Gal(b1-4)[Fuc(a1-3)]GlcNAc6S
# How it was run: as §1
# [15] = molecular target: Neu5Ac(a2-3)Gal6S(b1-4)GlcNAc
# How it was run: as §1
# [16] = molecular target: Neu5Ac(a2-3)Gal6S(b1-4)[Fuc(a1-3)]GlcNAc
# How it was run: as §1
# Neu5Ac(a2-3)GalNAc = molecular target: Neu5Ac(a2-3)GalNAc
# How it was run: as §1
# [17] = molecular target: Neu5Ac(a2-3)GalNAc(b1-4)GlcNAc
# How it was run: as §1
# [18] = molecular target: Neu5Ac(a2-3)[GalNAc(b1-4)]Gal(b1-4)Glc
# How it was run: as §1
# [19] = molecular target: Neu5Ac(a2-3)[GalNAc(b1-4)]Gal(b1-4)GlcNAc
# How it was run: as §1
# [20] = molecular target: Neu5Ac(a2-3)[GalNAc(b1-4)]Gal(b1-4)GlcNAc(b1-3)GalNAc
# How it was run: as §1
# [21] = molecular target: Neu5Ac(a2-3)[Neu5Ac(a2-6)]GalNAc
# How it was run: as §1
# Neu5Ac(a2-6)Gal = molecular target: Neu5Ac(a2-6)Gal
# How it was run: as §1
# [22] = molecular target: Neu5Ac(a2-6)Gal(b1-3)GlcNAc(b1-3)[Gal(b1-4)GlcNAc(b1-6)]Gal(b1-4)Glc
# How it was run: as §1
# Neu5Ac(a2-6)Gal(b1-4)Glc = molecular target: Neu5Ac(a2-6)Gal(b1-4)Glc
# How it was run: as §1
# [23] = molecular target: Neu5Ac(a2-6)Gal(b1-4)GlcNAc
# How it was run: as §1
# [24] = molecular target: Neu5Ac(a2-6)Gal(b1-4)GlcNAc(b1-2)Man
# How it was run: as §1
# [25] = molecular target: Neu5Ac(a2-6)Gal(b1-4)GlcNAc(b1-2)Man(a1-3)Man(b1-4)GlcNAc(b1-4)GlcNAc
# How it was run: as §1
# [26] = molecular target: Neu5Ac(a2-6)Gal(b1-4)GlcNAc(b1-2)Man(a1-3)[Gal(b1-4)GlcNAc(b1-2)Man(a1-6)]Man(b1-4)GlcNAc(b1-4)GlcNAc
# How it was run: as §1
# [27] = molecular target: Neu5Ac(a2-6)Gal(b1-4)GlcNAc(b1-2)Man(a1-3)[GlcNAc(b1-2)Man(a1-6)]Man(b1-4)GlcNAc(b1-4)GlcNAc
# How it was run: as §1
# [28] = molecular target: Neu5Ac(a2-6)Gal(b1-4)GlcNAc(b1-2)Man(a1-3)[GlcNAc(b1-4)][Neu5Ac(a2-6)Gal(b1-4)GlcNAc(b1-2)Man(a1-6)]Man(b1-4)GlcNAc(b1-4)GlcNAc
# How it was run: as §1
# [29] = molecular target: Neu5Ac(a2-6)Gal(b1-4)GlcNAc(b1-2)Man(a1-3)[Man(a1-6)]Man(b1-4)GlcNAc(b1-4)GlcNAc
# How it was run: as §1
# [30] = molecular target: Neu5Ac(a2-6)Gal(b1-4)GlcNAc(b1-2)Man(a1-3)[Neu5Ac(a2-3)Gal(b1-4)GlcNAc(b1-2)Man(a1-6)]Man(b1-4)GlcNAc(b1-4)GlcNAc
# How it was run: as §1
# [31] = molecular target: Neu5Ac(a2-6)Gal(b1-4)GlcNAc(b1-2)Man(a1-3)[Neu5Ac(a2-6)Gal(b1-4)GlcNAc(b1-2)Man(a1-6)]Man(b1-4)GlcNAc(b1-4)GlcNAc
# How it was run: as §1
# [32] = molecular target: Neu5Ac(a2-6)Gal(b1-4)GlcNAc(b1-2)Man(a1-3)[Neu5Ac(a2-6)Gal(b1-4)GlcNAc(b1-2)Man(a1-6)]Man(b1-4)GlcNAc(b1-4)[Fuc(a1-6)]GlcNAc
# How it was run: as §1
# [33] = molecular target: Neu5Ac(a2-6)Gal(b1-4)GlcNAc(b1-2)Man(a1-6)Man(b1-4)GlcNAc(b1-4)GlcNAc
# How it was run: as §1
# [34] = molecular target: Neu5Ac(a2-6)Gal(b1-4)GlcNAc(b1-2)Man(a1-6)[Gal(b1-4)GlcNAc(b1-2)Man(a1-3)]Man(b1-4)GlcNAc(b1-4)GlcNAc
# How it was run: as §1
# [35] = molecular target: Neu5Ac(a2-6)Gal(b1-4)GlcNAc(b1-2)Man(a1-6)[GlcNAc(b1-2)Man(a1-3)]Man(b1-4)GlcNAc(b1-4)GlcNAc
# How it was run: as §1
# [36] = molecular target: Neu5Ac(a2-6)Gal(b1-4)GlcNAc(b1-2)Man(a1-6)[Man(a1-3)]Man(b1-4)GlcNAc(b1-4)GlcNAc
# How it was run: as §1
# [37] = molecular target: Neu5Ac(a2-6)Gal(b1-4)GlcNAc(b1-2)[Neu5Ac(a2-6)Gal(b1-4)GlcNAc(b1-4)]Man(a1-3)[GlcNAc(b1-4)][Neu5Ac(a2-6)Gal(b1-4)GlcNAc(b1-2)[Neu5Ac(a2-6)Gal(b1-4)GlcNAc(b1-6)]Man(a1-6)]Man(b1-4)GlcNAc(b1-4)GlcNAc
# How it was run: as §1
# [38] = molecular target: Neu5Ac(a2-6)Gal(b1-4)GlcNAc(b1-2)[Neu5Ac(a2-6)Gal(b1-4)GlcNAc(b1-4)]Man(a1-3)[GlcNAc(b1-4)][Neu5Ac(a2-6)Gal(b1-4)GlcNAc(b1-4)Man(a1-6)]Man(b1-4)GlcNAc(b1-4)GlcNAc
# How it was run: as §1
# [39] = molecular target: Neu5Ac(a2-6)Gal(b1-4)GlcNAc(b1-2)[Neu5Ac(a2-6)Gal(b1-4)GlcNAc(b1-6)]Man(a1-6)[Neu5Ac(a2-6)Gal(b1-4)GlcNAc(b1-2)Man(a1-3)][GlcNAc(b1-4)]Man(b1-4)GlcNAc(b1-4)GlcNAc
# How it was run: as §1
# [40] = molecular target: Neu5Ac(a2-6)Gal(b1-4)GlcNAc(b1-3)Gal(b1-3)GlcNAc
# How it was run: as §1
# [41] = molecular target: Neu5Ac(a2-6)Gal(b1-4)GlcNAc(b1-3)Gal(b1-4)GlcNAc
# How it was run: as §1
# [42] = molecular target: Neu5Ac(a2-6)Gal(b1-4)GlcNAc(b1-3)Gal(b1-4)GlcNAc(b1-2)Man(a1-3)[Neu5Ac(a2-6)Gal(b1-4)GlcNAc(b1-3)Gal(b1-4)GlcNAc(b1-2)Man(a1-6)]GalNAc
# How it was run: as §1
binder,measurement,setting,value
B1,glycan array binding signal (z-score),[1],-0.236
same,glycan array binding signal (z-score),[2],-0.29
same,glycan array binding signal (z-score),[3],-0.315
same,glycan array binding signal (z-score),[4],-0.284
same,glycan array binding signal (z-score),[5],-0.236
same,glycan array binding signal (z-score),[6],-0.347
same,glycan array binding signal (z-score),[7],-0.388
same,glycan array binding signal (z-score),[8],-0.299
same,glycan array binding signal (z-score),[9],-0.191
same,glycan array binding signal (z-score),[10],-0.096
same,glycan array binding signal (z-score),[11],-0.047
same,glycan array binding signal (z-score),[12],-0.156
same,glycan array binding signal (z-score),[13],-0.274
same,glycan array binding signal (z-score),[14],-0.33
same,glycan array binding signal (z-score),[15],-0.279
same,glycan array binding signal (z-score),[16],-0.327
same,glycan array binding signal (z-score),Neu5Ac(a2-3)GalNAc,-0.317
same,glycan array binding signal (z-score),[17],-0.261
same,glycan array binding signal (z-score),[18],-0.353
same,glycan array binding signal (z-score),[19],-0.269
same,glycan array binding signal (z-score),[20],-0.029
same,glycan array binding signal (z-score),[21],-0.307
same,glycan array binding signal (z-score),Neu5Ac(a2-6)Gal,-0.252
same,glycan array binding signal (z-score),[22],-0.3
same,glycan array binding signal (z-score),Neu5Ac(a2-6)Gal(b1-4)Glc,-0.309
same,glycan array binding signal (z-score),[23],-0.257
same,glycan array binding signal (z-score),[24],-0.302
same,glycan array binding signal (z-score),[25],-0.23
same,glycan array binding signal (z-score),[26],-0.278
same,glycan array binding signal (z-score),[27],-0.344
same,glycan array binding signal (z-score),[28],-0.273
same,glycan array binding signal (z-score),[29],-0.367
same,glycan array binding signal (z-score),[30],-0.35
same,glycan array binding signal (z-score),[31],-0.279
same,glycan array binding signal (z-score),[32],-0.297
same,glycan array binding signal (z-score),[33],-0.334
same,glycan array binding signal (z-score),[34],-0.211
same,glycan array binding signal (z-score),[35],-0.222
same,glycan array binding signal (z-score),[36],-0.27
same,glycan array binding signal (z-score),[37],-0.253
same,glycan array binding signal (z-score),[38],-0.297
same,glycan array binding signal (z-score),[39],-0.33
same,glycan array binding signal (z-score),[40],-0.151
same,glycan array binding signal (z-score),[41],-0.172
same,glycan array binding signal (z-score),[42],0.534
